Data: PubChem BioAssay AID2202238 (Ras Initiative Chemistry Research Team, Frederick National …, 2025)
This is one part of the list. These are further read-outs of the screen, such as a control signal, another cell line or another target. No call is given for them.

Target: GTPase KRas (Homo sapiens) (UniProt P01116)
Experiment: Fragment capture on engineered cysteines, share of protein labelled (AID 2202238)
Parameters: protein at 5 µM with 500 µM competing thiol for 1.5 h
Settings: KRAS G12D cysteine mutants, disulfide tethering, MALDI-TOF labeling, stronger effect = higher value, fragment at 500 µM
[1] = measured here: G75C mutant labeling
[2] = measured here: H94C mutant labeling
[3] = measured here: I36C mutant labeling
[4] = measured here: L120C mutant labeling
[5] = measured here: M67C mutant labeling
[6] = measured here: M72C mutant labeling
[7] = measured here: N86C mutant labeling
[8] = measured here: P121C mutant labeling
[9] = measured here: S122C mutant labeling
[10] = measured here: S136C mutant labeling
[11] = measured here: G60C mutant labeling
[12] = measured here: N26C mutant labeling

Chain of UniProt P01116 (P01116 whole entry, looked up, the tested form may be a part): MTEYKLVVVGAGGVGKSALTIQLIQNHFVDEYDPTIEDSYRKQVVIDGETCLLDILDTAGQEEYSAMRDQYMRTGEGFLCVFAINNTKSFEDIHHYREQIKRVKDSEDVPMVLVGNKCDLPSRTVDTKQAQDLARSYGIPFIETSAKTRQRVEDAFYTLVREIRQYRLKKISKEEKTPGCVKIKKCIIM

Q: Which percent labeling [1] does the source give for Cc1oc2ccccc2c1CN(C)C(=O)CCS here?
A: Its percent labeling is 25.4%.

Q: And the percent labeling [2]?
A: Its percent labeling is 38.6%.

Q: And the percent labeling [3]?
A: The percent labeling was 25.4%.

Q: And the percent labeling [4]?
A: Its percent labeling is 19.5%.

Q: And the percent labeling [5]?
A: Its percent labeling is 42.6%.

Q: And the percent labeling [6]?
A: The percent labeling was 52.5%.

Q: And the percent labeling [7]?
A: The percent labeling was 21.4%.

Q: And the percent labeling [8]?
A: Its percent labeling is 24%.

Q: And the percent labeling [9]?
A: The percent labeling was 20.2%.

Q: And the percent labeling [10]?
A: Its percent labeling is 56.2%.

Q: With O=C(NCCS)c1nccnc1C(=O)NCc1ccc(F)cc1 as the compound, how does the percent labeling [11] read?
A: The percent labeling was 39.3%.

Q: What about the percent labeling [1] of the same compound?
A: Its percent labeling is 17.3%.

Q: And the percent labeling [2]?
A: Its percent labeling is 38.2%.

Q: And the percent labeling [3]?
A: The percent labeling was 29.6%.

Q: What about the percent labeling [4] of the same compound?
A: The percent labeling was 66.6%.

Q: What about the percent labeling [5] of the same compound?
A: The percent labeling was 34.9%.

Q: What about the percent labeling [6] of the same compound?
A: The percent labeling was 39.9%.

Q: And the percent labeling [12]?
A: Its percent labeling is 42.1%.

Q: And the percent labeling [7]?
A: The percent labeling was 17.8%.

Q: And the percent labeling [8]?
A: Its percent labeling is 33.8%.

Q: What about the percent labeling [9] of the same compound?
A: Its percent labeling is 29.2%.

Q: What about the percent labeling [10] of the same compound?
A: The percent labeling was 44.3%.

Q: Which results are given for O=C(CCS)Nc1ccccc1OCC(F)(F)F?
A: percent labeling [1]: 15.2%; percent labeling [2]: 40.3%; percent labeling [3]: 25.7%; percent labeling [4]: 33.5%; percent labeling [5]: 30.9%; percent labeling [6]: 32.8%; percent labeling [7]: 25.3%; percent labeling [8]: 26.8%; percent labeling [9]: 27.6%; percent labeling [10]: 47.6%

Q: For O=C(NCCS)c1[nH]nc2c1COc1ccccc1-2, which percent labeling [11] is on record?
A: The percent labeling was 9.7%.

Q: What about the percent labeling [1] of the same compound?
A: Its percent labeling is 5.4%.

Q: And the percent labeling [2]?
A: Its percent labeling is 10.5%.

Q: What about the percent labeling [3] of the same compound?
A: The percent labeling was 12.7%.

Q: And the percent labeling [4]?
A: Its percent labeling is 18.4%.

Q: What about the percent labeling [5] of the same compound?
A: Its percent labeling is 14.8%.

Q: And the percent labeling [6]?
A: Its percent labeling is 57.2%.

Q: And the percent labeling [12]?
A: The percent labeling was 22.1%.

Q: What about the percent labeling [7] of the same compound?
A: The percent labeling was 19.8%.

Q: And the percent labeling [8]?
A: Its percent labeling is 15.4%.

Q: And the percent labeling [9]?
A: The percent labeling was 14.1%.

Q: And the percent labeling [10]?
A: Its percent labeling is 21.8%.

Q: O=C(Nc1cn[nH]c1)C1CCN(C(=O)CCS)C1 (stereo not drawn) was tested. Which percent labeling [1] did it give?
A: The percent labeling was 12.1%.

Q: What about the percent labeling [2] of the same compound?
A: Its percent labeling is 24.2%.

Q: What about the percent labeling [3] of the same compound?
A: The percent labeling was 35.9%.

Q: And the percent labeling [4]?
A: Its percent labeling is 29.8%.

Q: And the percent labeling [5]?
A: The percent labeling was 35.9%.

Q: And the percent labeling [6]?
A: Its percent labeling is 14.5%.

Q: And the percent labeling [7]?
A: The percent labeling was 26.3%.

Q: What about the percent labeling [8] of the same compound?
A: The percent labeling was 30.6%.

Q: And the percent labeling [9]?
A: Its percent labeling is 31.7%.

Q: What about the percent labeling [10] of the same compound?
A: Its percent labeling is 50.9%.

Q: Which percent labeling [1] does the source give for CS(=O)(=O)C[C@@H]1C[C@H](F)CN1C(=O)CCS here?
A: The percent labeling was 5%.

Q: And the percent labeling [2]?
A: Its percent labeling is 28.6%.

Q: And the percent labeling [3]?
A: The percent labeling was 27.5%.

Q: And the percent labeling [4]?
A: Its percent labeling is 25.6%.

Q: What about the percent labeling [5] of the same compound?
A: Its percent labeling is 33.7%.

Q: What about the percent labeling [6] of the same compound?
A: The percent labeling was 12.9%.

Q: And the percent labeling [7]?
A: Its percent labeling is 33.8%.

Q: And the percent labeling [8]?
A: Its percent labeling is 30.2%.

Q: And the percent labeling [9]?
A: Its percent labeling is 33.5%.

Q: What about the percent labeling [10] of the same compound?
A: Its percent labeling is 43.1%.

Q: For Cn1cc(C2(C(=O)NCCS)CCCO2)cn1 (stereo not drawn), which percent labeling [11] is on record?
A: The percent labeling was 20.4%.

Q: What about the percent labeling [1] of the same compound?
A: Its percent labeling is 7.2%.

Q: And the percent labeling [2]?
A: Its percent labeling is 23.1%.

Q: What about the percent labeling [3] of the same compound?
A: Its percent labeling is 19%.

Q: What about the percent labeling [4] of the same compound?
A: Its percent labeling is 24.3%.

Q: What about the percent labeling [5] of the same compound?
A: The percent labeling was 22.2%.

Q: And the percent labeling [6]?
A: Its percent labeling is 11%.

Q: And the percent labeling [12]?
A: Its percent labeling is 32.6%.

Q: And the percent labeling [7]?
A: Its percent labeling is 23.1%.

Q: And the percent labeling [8]?
A: Its percent labeling is 25.5%.

Q: What about the percent labeling [9] of the same compound?
A: The percent labeling was 27.4%.

Q: And the percent labeling [10]?
A: The percent labeling was 36.6%.

Q: Which percent labeling [11] does the source give for CC(NC(=O)NCC(=O)NCCS)c1ccco1 (stereo not drawn) here?
A: The percent labeling was 22.7%.

Q: What about the percent labeling [1] of the same compound?
A: Its percent labeling is 9.4%.

Q: What about the percent labeling [2] of the same compound?
A: The percent labeling was 25%.

Q: What about the percent labeling [3] of the same compound?
A: Its percent labeling is 18.1%.

Q: And the percent labeling [4]?
A: Its percent labeling is 35.1%.

Q: What about the percent labeling [5] of the same compound?
A: Its percent labeling is 21.7%.

Q: What about the percent labeling [6] of the same compound?
A: The percent labeling was 14.5%.

Q: What about the percent labeling [12] of the same compound?
A: Its percent labeling is 29.3%.

Q: What about the percent labeling [7] of the same compound?
A: The percent labeling was 19.3%.

Q: What about the percent labeling [8] of the same compound?
A: Its percent labeling is 26.8%.

Q: And the percent labeling [9]?
A: Its percent labeling is 24.4%.

Q: What about the percent labeling [10] of the same compound?
A: Its percent labeling is 31.5%.

Q: With O=C(CN1C(=O)c2ccccc2C(F)(F)C1=O)NCCS as the compound, how does the percent labeling [11] read?
A: Its percent labeling is 14.5%.

Q: What about the percent labeling [1] of the same compound?
A: Its percent labeling is 11.5%.

Q: And the percent labeling [2]?
A: The percent labeling was 19.8%.

Q: What about the percent labeling [3] of the same compound?
A: The percent labeling was 12.7%.

Q: What about the percent labeling [4] of the same compound?
A: Its percent labeling is 53.3%.

Q: And the percent labeling [5]?
A: Its percent labeling is 16.5%.

Q: And the percent labeling [6]?
A: Its percent labeling is 11.5%.

Q: And the percent labeling [12]?
A: The percent labeling was 22.7%.

Q: What about the percent labeling [7] of the same compound?
A: The percent labeling was 20.4%.

Q: And the percent labeling [8]?
A: Its percent labeling is 23.8%.

Q: What about the percent labeling [9] of the same compound?
A: Its percent labeling is 28.3%.

Q: What about the percent labeling [10] of the same compound?
A: Its percent labeling is 25.2%.

Q: Which results are given for CC(NC(=O)CCS)c1noc(Cc2noc3ccccc23)n1 (stereo not drawn)?
A: percent labeling [1]: 23.7%; percent labeling [2]: 33%; percent labeling [3]: 44.8%; percent labeling [4]: 25.2%; percent labeling [5]: 69%; percent labeling [6]: 31.4%; percent labeling [7]: 26.9%; percent labeling [8]: 31.2%; percent labeling [9]: 26.1%; percent labeling [10]: 45.4%

Q: How did the percent labeling [11] turn out when Cc1nn(C)c(C)c1[C@@H]1OCC[C@H]1C(=O)NCCS was run?
A: Its percent labeling is 22%.

Q: And the percent labeling [1]?
A: The percent labeling was 5.2%.

Q: And the percent labeling [2]?
A: The percent labeling was 24.6%.

Q: And the percent labeling [3]?
A: The percent labeling was 24.4%.

Q: What about the percent labeling [4] of the same compound?
A: Its percent labeling is 23.1%.

Q: And the percent labeling [5]?
A: The percent labeling was 28.6%.

Q: And the percent labeling [6]?
A: The percent labeling was 6.7%.

Q: And the percent labeling [12]?
A: Its percent labeling is 28.3%.

Q: And the percent labeling [7]?
A: Its percent labeling is 17.4%.

Q: And the percent labeling [8]?
A: Its percent labeling is 28.8%.

Q: What about the percent labeling [9] of the same compound?
A: The percent labeling was 23.9%.

Q: What about the percent labeling [10] of the same compound?
A: Its percent labeling is 31.1%.

Q: Which percent labeling [1] does the source give for O=C(CCS)NCc1cn2cc(Cl)ccc2n1 here?
A: Its percent labeling is 14.7%.

Q: What about the percent labeling [2] of the same compound?
A: Its percent labeling is 26.2%.

Q: And the percent labeling [3]?
A: The percent labeling was 38.8%.

Q: And the percent labeling [4]?
A: The percent labeling was 32.5%.

Q: And the percent labeling [5]?
A: Its percent labeling is 33.8%.

Q: What about the percent labeling [6] of the same compound?
A: Its percent labeling is 30%.

Q: What about the percent labeling [7] of the same compound?
A: The percent labeling was 15.4%.

Q: And the percent labeling [8]?
A: Its percent labeling is 28.5%.

Q: What about the percent labeling [9] of the same compound?
A: The percent labeling was 25.1%.

Q: What about the percent labeling [10] of the same compound?
A: Its percent labeling is 50.1%.

Q: How did the percent labeling [11] turn out when O=C(Cc1c[nH]c2cnccc12)NCCS was run?
A: Its percent labeling is 47.5%.

Q: What about the percent labeling [1] of the same compound?
A: Its percent labeling is 23%.

Q: What about the percent labeling [2] of the same compound?
A: The percent labeling was 37.9%.

Q: What about the percent labeling [3] of the same compound?
A: The percent labeling was 38%.

Q: What about the percent labeling [4] of the same compound?
A: The percent labeling was 31.9%.

Q: And the percent labeling [5]?
A: Its percent labeling is 46.1%.

Q: What about the percent labeling [6] of the same compound?
A: Its percent labeling is 32.6%.

Q: And the percent labeling [12]?
A: The percent labeling was 43%.

Q: And the percent labeling [7]?
A: The percent labeling was 30.8%.

Q: And the percent labeling [8]?
A: Its percent labeling is 29.5%.

Q: And the percent labeling [9]?
A: Its percent labeling is 35.4%.

Q: What about the percent labeling [10] of the same compound?
A: The percent labeling was 49.6%.

Q: For Cn1c(=O)[nH]c(=O)c2[nH]c(CCC(=O)NCCS)nc21, which percent labeling [11] is on record?
A: The percent labeling was 31.1%.

Q: What about the percent labeling [1] of the same compound?
A: Its percent labeling is 12.8%.

Q: And the percent labeling [2]?
A: Its percent labeling is 27.7%.

Q: What about the percent labeling [3] of the same compound?
A: The percent labeling was 32.5%.

Q: What about the percent labeling [4] of the same compound?
A: The percent labeling was 29.8%.

Q: And the percent labeling [5]?
A: Its percent labeling is 31%.

Q: What about the percent labeling [6] of the same compound?
A: Its percent labeling is 17.5%.

Q: What about the percent labeling [12] of the same compound?
A: The percent labeling was 40.1%.

Q: And the percent labeling [7]?
A: The percent labeling was 26.8%.

Q: And the percent labeling [8]?
A: The percent labeling was 32.6%.

Q: And the percent labeling [9]?
A: Its percent labeling is 28%.

Q: And the percent labeling [10]?
A: Its percent labeling is 37%.

Q: What does the source list for O=C(NCCS)c1nc[nH]c1C(F)(F)F?
A: percent labeling [11]: 32%; percent labeling [1]: 19.3%; percent labeling [2]: 38.2%; percent labeling [3]: 24.7%; percent labeling [4]: 40.9%; percent labeling [5]: 30.3%; percent labeling [6]: 27.6%; percent labeling [12]: 40.3%; percent labeling [7]: 45.7%; percent labeling [8]: 31.3%; percent labeling [9]: 35.6%; percent labeling [10]: 38.9%
